Measurements from PubChem BioAssay AID624417 (National Center for Advancing Translational Sciences (NCATS), 2012).
In all, about 410,000 compounds went through this assay and about 6,400 (1.6%) were called active. Inconclusive means that the source gave no clear call. Such entries were picked first, then a sample of the others. Calls follow the shape of the dose curve; as a rule, active = well fitted inhibition curve with a large enough effect; inconclusive = small, poorly fitted or top-dose-only effect; inactive = no such curve, though single readings can be large or run the other way. Potencies of inconclusive entries are left out as doubtful fits.

What follows are compounds tested against Glucagon-like peptide 1 receptor (Homo sapiens) (UniProt P43220) (assay: qHTS of GLP-1 Receptor Inverse Agonists (Inhibition Mode)). Conditions: HEK293 GLP-1R CRE-luciferase, luminescence, 24 h, GLP-1R form is constitutively active; activity change, negative = inhibition: at 38.3 µM (top of the series) unless noted.
Procedure, shortened: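 Constitutively active GLP-1R drives a cAMP-responsive luciferase in stably transfected HEK293 cells; test compounds are added after overnight (12 h) attachment and left 24 hr, and signal loss in luminescence marks inhibition.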
% is scaled to controls: 0 for no effect and ±100 for the full control effect; potency is read from the fitted curve at half-maximal effect; tags tell the direction and shape of the fitted curve.
Also: nearly all actives have a fitted effect of over 55% in size.

Chain of UniProt P43220 (P43220 whole entry, looked up): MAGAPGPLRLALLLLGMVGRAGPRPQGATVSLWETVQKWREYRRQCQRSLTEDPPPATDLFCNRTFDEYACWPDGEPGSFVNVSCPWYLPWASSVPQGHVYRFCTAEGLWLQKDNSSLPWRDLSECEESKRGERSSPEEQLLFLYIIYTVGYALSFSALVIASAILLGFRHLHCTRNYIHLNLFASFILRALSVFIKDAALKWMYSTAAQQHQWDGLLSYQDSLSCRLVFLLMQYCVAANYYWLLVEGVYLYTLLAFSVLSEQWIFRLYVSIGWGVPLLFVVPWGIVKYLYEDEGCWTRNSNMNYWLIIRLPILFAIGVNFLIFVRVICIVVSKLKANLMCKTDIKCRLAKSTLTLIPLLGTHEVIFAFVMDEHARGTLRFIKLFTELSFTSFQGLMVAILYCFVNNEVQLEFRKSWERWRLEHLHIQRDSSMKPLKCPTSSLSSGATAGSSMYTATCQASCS

SMILES	Potency	activity change, negative = inhibition
CN(c1ccc(F)cc1)S(=O)(=O)c1ccc(Cl)c(C(=O)NCC2(N3CCOCC3)CCCCC2)c1	inconclusive [inhibitor, single point]	
O=C(Nc1cccnc1)c1cc(-c2ccccc2O)on1	inconclusive [inhibitor, single point]	
CC(C)[C@H](NC(=O)c1ccccc1Cl)C(=O)OCc1cc([N+](=O)[O-])cc2c1OCOC2		inactive: -7.42%
O=C1N(c2cccc(Cl)c2)C(c2ccccc2)N2CCCN12 (stereo not drawn)	inconclusive [inhibitor, single point]	
Cc1ccc(S(=O)(=O)Nc2nc3n(n2)C(c2ccc(F)cc2)C=C(c2ccccc2)N3)cc1 (stereo not drawn)		inactive: -6.1%
COc1ccc([C@H]2C[C@@H](n3cc(COC(=O)c4ccccc4)nn3)[C@H](O)CN2C(=O)C2CCCCC2)cc1	inconclusive [inhibitor, single point]	
CCOCCCNC(=O)C1(O)c2ccccc2NC(=O)N1c1ccc(Cl)c(Cl)c1 (stereo not drawn)		inactive: -1.07%
CCc1cccc(C)c1N1C(=O)CN(Cc2ccccc2)C1=S	active: 5.62 µM	
CCOC(=O)c1cc(C)n(-c2ccc(OC)c(OC)c2)c1C	inconclusive [inhibitor, single point]	
CC1Oc2ccccc2C=C1/C=N/NC(=O)c1ccccc1 (stereo not drawn)	inconclusive [inhibitor, single point]	
Cc1c(Cl)c([N+](=O)[O-])nn1CC(=O)NC12CC3CC(CC(C3)C1)C2	inconclusive [inhibitor, partial curve, poor fit]	
Cc1cc(Cl)ccc1OCCCC(=O)NCCN1C(=O)S/C(=C\c2cccnc2)C1=O	inconclusive [inhibitor, single point]	
CC(=O)Nc1ccc(S(=O)(=O)NCC2CCC(C(=O)NCCN(CC(C)C)CC(C)C)CC2)cc1 (stereo not drawn)		inactive: 6.58%
Cc1cc(C(=O)N[C@@H](c2ccccc2)[C@]2(C)C[C@H]2[C@@H](C)C(=O)Nc2ccc3ccccc3c2)no1	inconclusive [inhibitor, single point]	
COc1ccc(Cn2c(C(=O)O)c(CNCCc3cc(OC)ccc3OC)c3ccc(C)cc32)cc1	inconclusive [inhibitor, partial curve, poor fit]	
c1ccc2c(c1)nc(N1CCCCCC1)c1ccccc12	inconclusive [inhibitor, partial curve, poor fit]	
CC1(C(=O)NCc2cccc3ccccc23)CCN1Cc1ccc(OC(F)(F)F)cc1 (stereo not drawn)	inconclusive [inhibitor, single point]	
COc1cc(CNC(C)(C)CO)cc(Br)c1OCc1ccc(Cl)cc1	inconclusive [inhibitor, full curve, poor fit]	
Cc1ccnc(Nc2nc(-c3ccc(Cl)cc3)cs2)c1	inconclusive [inhibitor, full curve]	
Cc1cc(C)n(-c2nnc(Nc3ccc(C)c(Cl)c3)c3ccccc23)n1	inconclusive [inhibitor, partial curve, poor fit]	
O=C(Nc1ccc(F)cc1)Nc1ccc(S(=O)(=O)N2CCCC2)cc1	active: 8.91 µM	
C/C(=N\OC(=O)Nc1ccc(Cl)cc1)c1ccc(F)c(F)c1	inconclusive [inhibitor, single point]	

SMILES	Potency	activity change, negative = inhibition
O=C(O)c1ccccc1NSc1ccccc1[N+](=O)[O-]	inconclusive [inhibitor, single point]	
Cc1cccc(C(=O)Nc2cccc(C(=O)NC3CCCC3)c2)c1	inconclusive [inhibitor, partial curve, poor fit]	
Cc1nnsc1C(=O)Nc1ccc(S(=O)(=O)N2CCCCC2C)cc1 (stereo not drawn)	inconclusive [inhibitor, single point]	
COc1ccc(C(=O)NCC(=O)N/N=C/c2cn(C)c3ccccc23)cc1OC		inactive: 4.24%
CC(C)(C)c1ccc(OCCC(=O)NCCc2ccc(S(N)(=O)=O)cc2)cc1	inconclusive [inhibitor, single point]	
CCc1ccc(OCC(=O)N/N=C(\C)c2ccc(OC(F)F)cc2)cc1	inconclusive [inhibitor, single point]	
COc1ccccc1N1CCN(C(CNC(=O)C(=O)NCc2ccc(F)cc2)c2cccnc2)CC1 (stereo not drawn)		inactive: -5.98%
COc1ccc(N(C(=O)CCl)C(C(=O)NC2CCCCC2)c2cccnc2)cc1 (stereo not drawn)		inactive: 0%
CCC(C)Sc1cccc(-c2nc3ccccn3c2NCc2ccccc2)c1 (stereo not drawn)		inactive: 15.5%
Cc1cc(NS(=O)(=O)c2ccc(NC(=O)c3ccccc3F)cc2)no1		inactive: 22.2%
CC1SCCN1S(=O)(=O)c1ccc2ccccc2c1 (stereo not drawn)	inconclusive [inhibitor, single point]	
Cc1noc(/C=C/N(C)C)c1S(=O)(=O)N1CCc2ccccc21	inconclusive [inhibitor, partial curve, poor fit]	
CC(C)(C)NC(=O)C(c1ccc(-c2ccccc2)cc1)n1c(=O)c(-c2ccco2)nc2ccccc21 (stereo not drawn)	inconclusive [inhibitor, single point]	
CCN(CC(=O)Nc1ccc(OC)cc1)C(=O)CSCc1ccc(C)cc1	inconclusive [inhibitor, partial curve, poor fit]	
CCc1cccc(NC(=O)Nc2cccs2)c1	inconclusive [inhibitor, single point]	
COc1cc2ccccc2ccc1=NO	active: 2.51 µM	
CC(=O)N1CCN(Cc2ccc(Br)s2)CC1		inactive: 0%
Cc1c(-c2ccccc2Br)nc2ccccc2c1C(=O)O		inactive: 9.56%
CCc1ccccc1NC(=O)Cc1ccc(NC(=O)N2CCCCc3ccccc32)cc1	inconclusive [inhibitor, single point]	
CCC(C)NC(=S)NNC(=O)c1ccc(C(C)(C)C)cc1 (stereo not drawn)	inconclusive [inhibitor, single point]	
Cc1cccc(NNC(=S)Nc2c(C)cccc2C)c1	active: 3.16 µM	
